# Reference: patent publication US5405946A, “Recombinant protein S variants deficient in C4BP binding activity, compositions and therapeutic methods” (The Scripps Research Institute, priority 1992, dated 1995)
# Like-named read-outs stand apart in the source and are kept apart here. At least one peptide structure holds a part that was inferred or is arguable (an end, a ring closure or a residue). Some entries repeat one wording, which the source may state once for all of them. Where no end group is shown, it is not given here.
# Key:
# C4BP [1] = biological target: T1, C4BP (Homo sapiens, UniProt P20851); assay: Binding of biotinylated C4BP to immobilized synthetic PS peptides; conditions: peptide coated at 20 uM; for binding of C4BP to peptide / bC4BP concentration at which binding saturated: bC4BP 0-5 ug/ml; for absorbance at maximal binding of bC4BP (change in absorbance at 405 nm/minute): saturation at 2.5 ug/ml bC4BP
# T1 sequence (P20851 18-252): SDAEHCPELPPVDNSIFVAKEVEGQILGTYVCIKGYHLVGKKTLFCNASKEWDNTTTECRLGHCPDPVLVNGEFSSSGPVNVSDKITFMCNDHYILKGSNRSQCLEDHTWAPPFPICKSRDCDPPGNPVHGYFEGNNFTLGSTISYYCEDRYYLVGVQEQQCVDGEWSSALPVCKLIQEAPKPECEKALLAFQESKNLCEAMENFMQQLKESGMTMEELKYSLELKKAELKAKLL
# T1 sequence (P04003 49-597 partner): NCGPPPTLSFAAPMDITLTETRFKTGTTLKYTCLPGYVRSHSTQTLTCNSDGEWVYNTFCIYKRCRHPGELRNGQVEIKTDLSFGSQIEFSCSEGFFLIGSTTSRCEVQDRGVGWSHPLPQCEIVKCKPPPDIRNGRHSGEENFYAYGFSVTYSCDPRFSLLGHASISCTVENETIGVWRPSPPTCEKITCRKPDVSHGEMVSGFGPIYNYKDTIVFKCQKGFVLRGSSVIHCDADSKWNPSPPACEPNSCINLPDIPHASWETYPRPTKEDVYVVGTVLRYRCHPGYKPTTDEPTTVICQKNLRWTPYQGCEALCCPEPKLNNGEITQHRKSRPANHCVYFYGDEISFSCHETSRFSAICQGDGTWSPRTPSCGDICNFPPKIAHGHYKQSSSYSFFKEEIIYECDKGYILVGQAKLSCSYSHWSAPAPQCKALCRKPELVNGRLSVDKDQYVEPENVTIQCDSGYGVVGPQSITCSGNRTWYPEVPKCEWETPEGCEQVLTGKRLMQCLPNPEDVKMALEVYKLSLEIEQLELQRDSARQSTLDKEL
# C4BP [2] = biological target: T1, C4BP; type: binding; conditions: fluid phase
# [3] = system: anti-PS monoclonal antibody LJ-56; assay: Binding of anti-PS monoclonal antibody LJ-56 to coated synthetic PS peptides; conditions: synthetic peptides coated at 20 uM
# C4BP [4] = biological target: T1, C4BP; type: binding; conditions: solid phase
substance,measurement,setting,value
"SGIKEAAQEKQNKHC-NH2 [I425A/I426A peptide, SGIKEAAQEKQNKHC]",binding of C4BP to peptide,C4BP [1],failed to bind to C4BP at any concentration of bC4BP tested
"SGIKEIIEEKQNKHC-NH2 [Q427E peptide, SGIKEIIEEKQNKHC]",bC4BP concentration at which binding saturated,C4BP [1],2.5 µg/mL
same,absorbance at maximal binding of bC4BP (change in absorbance at 405 nm/minute),C4BP [1],60 ×10^-3
same,inhibition of binding of C4BP to PS,C4BP [2],no inhibition of binding was detected
same,recognition by LJ-56,[3],equal affinity
"SGIKEIIQEEQNKHC-NH2 [K429E peptide, SGIKEIIQEEQNKHC]",binding of C4BP to peptide,C4BP [1],failed to bind to C4BP at any concentration of bC4BP tested
same,inhibition of binding of C4BP to PS,C4BP [4],did not compete for the binding of PS with C4BP
same,inhibition of binding of C4BP to PS,C4BP [2],did not compete for the binding of PS with C4BP
same,recognition by LJ-56,[3],failed to bind
"SGIKEIIQEKQNEHC-NH2 [K432E peptide, SGIKEIIQEKQNEHC]",binding of C4BP to peptide,C4BP [1],failed to bind to C4BP at any concentration of bC4BP tested
"SGIKEIIQEKQNKHC-NH2 [PSP-420, SGIKEIIQEKQNKHC]",bC4BP concentration at which binding saturated,C4BP [1],2.5 µg/mL
same,absorbance at maximal binding of bC4BP (change in absorbance at 405 nm/minute),C4BP [1],90 ×10^-3
same,recognition by LJ-56,[3],equal affinity
"SGIKKIIQEKQNKHC-NH2 [E424K peptide, SGIKKIIQEKQNKHC]",bC4BP concentration at which binding saturated,C4BP [1],approximately 2.5 ug/ml
same,absorbance at maximal binding of bC4BP (change in absorbance at 405 nm/minute),C4BP [1],140 ×10^-3
same,recognition by LJ-56,[3],equal affinity
